According to PubChem BioAssay AID1347165 (National Center for Advancing Translational Sciences (NCATS), 2019):
In all, about 220,000 compounds went through this assay and about 5,700 (2.6%) were called active. The inconclusive results got no clear call from the source; some entries with a clear call stand among them for comparison. Calls come from the whole dose curve; as a rule, active = well fitted inhibition curve with a large enough effect; inconclusive = small, poorly fitted or top-dose-only effect; inactive = no such curve, though single readings can be large or run the other way. Potencies of inconclusive entries are doubtful fits and often do not repeat.

biological target: Lysine-specific demethylase 5B (Homo sapiens) (UniProt Q9UGL1); assay: Primary screen for KDM5B Histone Demethylases FDH-coupled qHTS; details: FDH-coupled NADH fluorescence (FDH is formaldehyde dehydrogenase); activity change, negative = inhibition: at 57.7 µM (top of the series) unless noted; note: nearly all actives have a fitted effect of over 70% in size; for activity change, negative = inhibition: 0% is about no effect
Chain of UniProt Q9UGL1 (Q9UGL1 whole entry, looked up): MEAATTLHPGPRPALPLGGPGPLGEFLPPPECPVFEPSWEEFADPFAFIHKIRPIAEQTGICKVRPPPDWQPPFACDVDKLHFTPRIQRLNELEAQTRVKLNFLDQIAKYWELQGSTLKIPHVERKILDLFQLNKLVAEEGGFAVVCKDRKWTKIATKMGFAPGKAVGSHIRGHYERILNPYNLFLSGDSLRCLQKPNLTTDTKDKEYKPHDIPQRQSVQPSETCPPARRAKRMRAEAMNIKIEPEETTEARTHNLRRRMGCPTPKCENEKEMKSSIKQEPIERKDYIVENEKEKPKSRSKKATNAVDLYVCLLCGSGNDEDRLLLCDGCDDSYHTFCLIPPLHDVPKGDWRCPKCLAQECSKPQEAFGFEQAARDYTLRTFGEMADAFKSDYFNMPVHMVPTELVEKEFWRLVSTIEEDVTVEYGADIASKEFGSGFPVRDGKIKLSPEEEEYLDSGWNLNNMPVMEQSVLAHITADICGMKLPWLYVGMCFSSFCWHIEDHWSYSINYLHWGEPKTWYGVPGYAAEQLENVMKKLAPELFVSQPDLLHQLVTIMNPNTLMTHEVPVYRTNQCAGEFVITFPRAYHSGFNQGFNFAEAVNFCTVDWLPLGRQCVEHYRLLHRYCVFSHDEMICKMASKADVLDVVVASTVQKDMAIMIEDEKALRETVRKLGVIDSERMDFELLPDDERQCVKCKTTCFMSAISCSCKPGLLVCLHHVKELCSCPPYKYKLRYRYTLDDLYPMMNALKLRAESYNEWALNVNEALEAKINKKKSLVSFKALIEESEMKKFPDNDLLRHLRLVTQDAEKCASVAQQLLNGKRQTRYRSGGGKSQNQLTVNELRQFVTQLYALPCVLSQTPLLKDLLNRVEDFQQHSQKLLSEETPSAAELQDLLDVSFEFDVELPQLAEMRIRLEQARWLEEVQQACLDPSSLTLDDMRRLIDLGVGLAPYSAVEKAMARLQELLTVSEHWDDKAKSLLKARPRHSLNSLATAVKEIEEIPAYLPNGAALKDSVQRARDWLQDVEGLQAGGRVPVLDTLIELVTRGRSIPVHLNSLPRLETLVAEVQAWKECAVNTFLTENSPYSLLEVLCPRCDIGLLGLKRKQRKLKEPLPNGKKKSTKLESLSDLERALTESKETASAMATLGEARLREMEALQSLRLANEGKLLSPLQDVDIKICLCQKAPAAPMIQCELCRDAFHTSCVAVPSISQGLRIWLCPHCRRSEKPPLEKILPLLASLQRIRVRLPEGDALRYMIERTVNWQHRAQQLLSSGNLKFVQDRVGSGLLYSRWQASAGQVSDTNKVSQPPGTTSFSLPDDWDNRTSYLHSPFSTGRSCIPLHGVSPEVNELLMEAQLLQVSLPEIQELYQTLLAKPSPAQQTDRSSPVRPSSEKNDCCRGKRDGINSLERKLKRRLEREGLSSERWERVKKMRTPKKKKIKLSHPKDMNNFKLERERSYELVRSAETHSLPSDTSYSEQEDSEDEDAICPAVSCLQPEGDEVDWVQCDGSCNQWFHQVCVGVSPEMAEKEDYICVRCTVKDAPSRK
Procedure, shortened: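 Coupled FDH/NAD⁺ fluorescence readout. KDM5BΔAP 200 nM final; compound titration, 10 min RT preincubation; substrate mix 12.5 µM H3K4me3, 25 µM 2-OG, 50 µM Fe(II), 100 µM ascorbate, 0.25 mM NAD⁺, 0.25 U/mL FDH; ΔRFU over 30 min.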
Potency is the fitted concentration of half-maximal effect; tags give direction and shape of the fitted curve.

**Q.** For `COc1ccccc1OCC(=O)c1ccc2c(c1)N(CCCC(=O)NCC1CCCO1)C(=O)CO2` (stereo not given), which Potency is on record?
**A.** inconclusive: 25.1 µM [inhibitor, single point]

**Q.** With `COc1ccc(OC)c(CNC(=O)c2ccc3c(c2)c(C)c(C)n3Cc2ccc(Cl)cc2)c1` as the compound, how does the Potency read?
**A.** inconclusive: 28.2 µM [inhibitor, partial curve, poor fit]

**Q.** For `COc1ccc(OC)c(S(=O)(=O)N2CCC(Cc3ncc(C)n3C3CC3)C2)c1` (stereo not given), which “activity change, negative = inhibition” value is on record?
**A.** inactive: -9.23%

**Q.** For `CC(C)n1cc(-c2nc3cc(S(=O)(=O)N4CCCC4)ccc3n2C)cn1`, which “activity change, negative = inhibition” value is on record?
**A.** inactive: -22.5%

**Q.** For `COC(=O)c1scc(-c2ccc(C)cc2)c1S(=O)(=O)N1CCN(c2ccccc2)CC1`, which activity change, negative = inhibition is on record?
**A.** inconclusive: -40% [inhibitor]

**Q.** How did the “activity change, negative = inhibition” value turn out when `COC(=O)c1ccccc1OCc1ccccc1` was run?
**A.** inactive: -9.62%

**Q.** With `COc1cccc(NC(=O)CC(=O)Nc2ccc3nc4n(c(=O)c3c2)CCCCC4)c1` as the compound, how does the Potency read?
**A.** inconclusive: 39.8 µM [inhibitor, single point]

**Q.** For `C=CCO[C@@H]1C[C@H]2C(=O)Nc3ccc(-c4ccc(OC)cc4)cc3C(=O)N2C1`, which Potency is on record?
**A.** active: 35.5 µM

**Q.** `O=c1[nH]c(N2CCOCC2)nc2c1CCN(Cc1ccc(Cl)c(F)c1)CC2` was tested. Which “activity change, negative = inhibition” value did it give?
**A.** inactive: 4%

**Q.** With `CCOc1ccc(CCNC(=O)C2CCCN(c3nc4ccc(OCC)cc4s3)C2)cc1` (stereo not given) as the compound, how does the “activity change, negative = inhibition” value read?
**A.** inactive: 9.23%

**Q.** For `CCc1ccc(-c2cc(C(=O)NCc3ccco3)c3ccccc3n2)cc1`, which Potency is on record?
**A.** inconclusive: 28.2 µM [inhibitor, single point]

**Q.** Which Potency does the source give for `CN(C(=O)Cn1cccc1-c1nc(-c2ccc(F)cc2)no1)c1ccccc1` here?
**A.** inconclusive: 22.4 µM [inhibitor, single point]

**Q.** With `O=C(NCCN1CCOC1=O)c1cc(COc2ccccc2F)[nH]n1` as the compound, how does the “activity change, negative = inhibition” value read?
**A.** inactive: 5.72%

**Q.** How did the Potency turn out when `CN1CCOc2c(C(=O)NCCC(N)=O)cc(-c3ccccc3)cc21` was run?
**A.** active: 35.5 µM

**Q.** With `CCN(CC)c1ccc(/C=N/NC(=O)CNC(=O)C2COc3ccccc3O2)c(O)c1` (stereo not given) as the compound, how does the Potency read?
**A.** inconclusive: 22.4 µM [inhibitor, partial curve, poor fit]

**Q.** For `C#CCn1c(=NC(=O)c2ccc3c(c2)OCCO3)sc2cc(OC)c(OC)cc21`, which Potency is on record?
**A.** inconclusive: 1.12 µM [inhibitor, full curve, poor fit]

**Q.** Which Potency does the source give for `CCCc1nc(C(=O)NC2CCCc3nc(N(C)C)ncc32)cs1` (stereo not given) here?
**A.** active: 25.1 µM

**Q.** How did the Potency turn out when `COc1ccc(S(=O)(=O)Nc2ccc3oc4c(c3c2)CCCC4)cc1` was run?
**A.** inconclusive: 8.91 µM [inhibitor, partial curve, poor fit]

**Q.** Which Potency does the source give for `O=S(=O)(c1ccc(-c2csc(NC3CCCC3)n2)cc1)N1CCCC1` here?
**A.** inconclusive: 14.1 µM [inhibitor, partial curve, poor fit]

**Q.** For `CC1(C)N=C(SCc2ccccc2Cl)c2ccccc2N1`, which Potency is on record?
**A.** inconclusive: 31.6 µM [inhibitor, partial curve, poor fit]

**Q.** Which Potency does the source give for `CC(=O)Cc1nsc(NC(=O)c2oc(-c3ccccc3Cl)cc2C)n1` here?
**A.** inconclusive: 31.6 µM [inhibitor, partial curve, poor fit]

**Q.** How did the Potency turn out when `CCCCNC(=O)CSc1nc2n[nH]c(C)c2c(=N)n1-c1cccc(Cl)c1C` was run?
**A.** inconclusive: 35.5 µM [inhibitor, partial curve, poor fit]

**Q.** `COC(=O)c1scc(-c2ccc(C)cc2)c1S(=O)(=O)Nc1cccc(C)c1` was tested. Which “activity change, negative = inhibition” value did it give?
**A.** inactive: -9.46%

**Q.** For `COc1ccccc1NC(=O)c1cc2c(N3CCSCC3)nc(C)cn2n1`, which Potency is on record?
**A.** active: 28.2 µM

**Q.** For `CC(O)c1ccc(-c2ccc(CNc3nnnn3C)o2)cc1` (stereo not given), which Potency is on record?
**A.** inconclusive: 25.1 µM [inhibitor, partial curve, poor fit]

**Q.** `O=C(NCC1CCOCC1)Nc1c(F)cccc1F` was tested. Which “activity change, negative = inhibition” value did it give?
**A.** inactive: 9.76%

**Q.** For `C1CCC(NCC2CCN(C3CC3)C2)C1` (stereo not given), which “activity change, negative = inhibition” value is on record?
**A.** inactive: -16.1%

**Q.** For `Cc1cc(Cl)ccc1OCC(=O)N1CC(CO)C2(CCNCC2)C1` (stereo not given), which Potency is on record?
**A.** inconclusive: 17.8 µM [inhibitor, partial curve, poor fit]

**Q.** How did the “activity change, negative = inhibition” value turn out when `COCC(=O)N1CCc2nc(-c3ccc(Cl)cc3)nc(-c3ccccc3)c2C1` was run?
**A.** inactive: -1.93%

**Q.** For `COc1ncccc1-c1cnc2[nH]cc(CC(=O)Nc3ccncc3)c2c1`, which Potency is on record?
**A.** active: 39.8 µM

**Q.** Which “activity change, negative = inhibition” value does the source give for `Cc1ccc(-c2csc(-c3nc(-c4ccccc4)cs3)n2)c(C)c1` here?
**A.** inactive: 5.74%

**Q.** `O=C1CC(c2ccccc2)N(C(=O)CNC(=O)c2n[nH]c3ccccc23)CCCCCN1` (stereo not given) was tested. Which Potency did it give?
**A.** inconclusive: 25.1 µM [inhibitor, partial curve]

**Q.** `COc1ccc(NC(=O)N[C@@H]2C=C[C@@H](c3c(C)nn(-c4ccccn4)c3C)C2)cc1` was tested. Which Potency did it give?
**A.** inconclusive: 35.5 µM [inhibitor, single point]

**Q.** `N#Cc1cccc(C(=O)OCc2cc(-c3ccc(Cl)cc3)no2)c1` was tested. Which “activity change, negative = inhibition” value did it give?
**A.** inactive: 40.6%

**Q.** For `CN(C)C(=O)C(C)(C)Oc1nn(Cc2cccc(Cl)c2)c2ccccc12`, which Potency is on record?
**A.** inconclusive: 31.6 µM [inhibitor, single point]

**Q.** How did the “activity change, negative = inhibition” value turn out when `COCCNC(=O)C1CCN(S(=O)(=O)c2ccc3c(ccn3C)c2)CC1` was run?
**A.** inactive: 18.1%

**Q.** Which “activity change, negative = inhibition” value does the source give for `O=[N+]([O-])c1ccc(/C=N/Nc2ccc(Cl)nn2)cc1` here?
**A.** inactive: 21.6%

**Q.** For `O=C(NCc1ccco1)c1ccc2c(c1)N(Cc1ccc(Cl)cc1)C(=O)c1ccccc1S2`, which Potency is on record?
**A.** inconclusive: 31.6 µM [inhibitor, partial curve, poor fit]

**Q.** For `O=C(c1ccc(F)cc1)N1CCC(Cc2nncn2-c2ccccc2)CC1`, which Potency is on record?
**A.** inconclusive: 22.4 µM [inhibitor, partial curve]

**Q.** `COc1cccc(NC(=O)/C(C#N)=C/c2c(C)n(Cc3ccc(Cl)cc3)c3ccccc23)c1` was tested. Which Potency did it give?
**A.** inconclusive: 31.6 µM [inhibitor, partial curve, poor fit]

**Q.** How did the Potency turn out when `NC(=S)N/N=C1\C2C3C(Br)C4C5CC(C1C53)C24` (stereo not given) was run?
**A.** inconclusive: 22.4 µM [inhibitor, partial curve, poor fit]

**Q.** With `Cc1ccc(C)c(-c2csc(-c3ccccc3)n2)c1` as the compound, how does the “activity change, negative = inhibition” value read?
**A.** inactive: 19.9%

**Q.** For `O=C(CSc1ccccc1)Nc1ccc(N2CCOCC2)c(F)c1`, which “activity change, negative = inhibition” value is on record?
**A.** inactive: 1.7%

**Q.** For `COc1ccccc1Cc1nc2ccccc2nc1SCC(=O)N1CCN(c2ccccc2)CC1`, which Potency is on record?
**A.** inconclusive: 15.8 µM [inhibitor, partial curve, poor fit]

**Q.** `Cc1cc(C)cc(Oc2nc3c(C)cccn3c(=O)c2/C=C(\C#N)c2nc3ccccc3s2)c1` was tested. Which Potency did it give?
**A.** inconclusive: 28.2 µM [inhibitor, partial curve, poor fit]

**Q.** Which Potency does the source give for `CN(C)CCCN(C(=O)c1ccc(S(=O)(=O)N2CCCCCC2)cc1)c1nc2ccc(Br)cc2s1` here?
**A.** inconclusive: 39.8 µM [inhibitor, single point]

**Q.** For `O=C1COc2ccc(-c3cccc(O)c3)nc2CN1Cc1ccc(C(F)(F)F)cc1`, which “activity change, negative = inhibition” value is on record?
**A.** inactive: -15.9% [at 86.2 µM]

**Q.** How did the “activity change, negative = inhibition” value turn out when `COc1cccc(-c2ccc(CN3CCN(c4ccc(Cl)nn4)C(=O)C3)cc2)c1` was run?
**A.** inactive: 0.85% [at 115 µM]

**Q.** For `Cc1ccc2nc(NC(C)(C)CO)nc(-c3ccccc3)c2c1`, which “activity change, negative = inhibition” value is on record?
**A.** inactive: 120%

**Q.** How did the Potency turn out when `COCCCNC(=O)C(C)(C)Oc1nn(Cc2cccc(Cl)c2)c2ccccc12` was run?
**A.** inconclusive: 39.8 µM [inhibitor, single point]

**Q.** How did the Potency turn out when `Cc1nc2ccn(Cc3cccnc3)c(=O)c2cc1C(=O)N1CCN(c2ccc(F)cc2)CC1` was run?
**A.** inconclusive: 28.2 µM [inhibitor, partial curve, poor fit]

**Q.** For `CN(C)CCNc1oc(-c2ccc(COc3ccc(Cl)cc3)o2)nc1C#N`, which Potency is on record?
**A.** inconclusive: 15.8 µM [inhibitor, partial curve, poor fit]

**Q.** For `CCc1c(C)sc(NC(=O)C2CC3CCC2C3)c1C#N` (stereo not given), which Potency is on record?
**A.** inconclusive: 20 µM [inhibitor, partial curve, poor fit]

**Q.** How did the Potency turn out when `CC(=O)c1cc2c(cc1NC(=O)CSc1nnc(C3CC3)n1Cc1ccccc1)OCO2` was run?
**A.** inconclusive: 20 µM [inhibitor, single point]

**Q.** Which Potency does the source give for `O=C(c1cc(C2CC2)nc2onc(C3CCNCC3)c12)N1CCOCC1` here?
**A.** active: 56.2 µM

**Q.** For `COc1ccc(CNC(=O)c2oc3c(c2C)-c2nn(Cc4ccc(Cl)cc4)cc2CC3)cc1`, which Potency is on record?
**A.** inconclusive: 5.62 µM [inhibitor, partial curve, poor fit]

**Q.** With `c1ccc(-c2cc(NCCCOc3cccnc3)n3nccc3n2)cc1` as the compound, how does the Potency read?
**A.** active: 22.4 µM

**Q.** How did the Potency turn out when `C(=Nc1ccccc1)c1ccc(-c2cccs2)s1` was run?
**A.** inconclusive: 20 µM [inhibitor, partial curve, poor fit]

**Q.** `CCN(CC)S(=O)(=O)c1ccc(C)c(NC(=O)Cc2ccccc2F)c1` was tested. Which “activity change, negative = inhibition” value did it give?
**A.** inactive: -3.9%

**Q.** How did the Potency turn out when `Cc1ccc(NC(=O)C2CCN(c3nn4cc(-c5ccc(C)cc5)nc4s3)CC2)cc1` was run?
**A.** inconclusive: 2.82 µM [inhibitor, partial curve, poor fit]

**Q.** `COc1ccc(CCC(=O)N[C@H]2[C@@H]3CCO[C@@H]3[C@@H]2C2CCCC2)cc1OC` was tested. Which “activity change, negative = inhibition” value did it give?
**A.** inactive: -18.5%

**Q.** For `COc1cc(NC(=O)c2cc3c(N4CCSCC4)nc(C)cn3n2)cc(OC)c1OC`, which Potency is on record?
**A.** active: 22.4 µM

**Q.** How did the Potency turn out when `CN(CC(=O)Nc1ccc(Cl)cc1)CC(=O)N1CCC(Cc2ccccc2)CC1` was run?
**A.** inconclusive: 20 µM [inhibitor, partial curve, poor fit]

**Q.** For `COCC(=O)N1CCN(c2oc(-c3ccccc3C)nc2S(=O)(=O)c2ccc(C)cc2)CC1`, which Potency is on record?
**A.** inconclusive: 28.2 µM [inhibitor, single point]

**Q.** With `Cc1cc(C)c(C(=O)Oc2c(C)cccc2C)c(C)c1` as the compound, how does the “activity change, negative = inhibition” value read?
**A.** inactive: -8.81%

**Q.** Which “activity change, negative = inhibition” value does the source give for `O=C(CC1CCCCC1)NNC(=O)c1cccc(Cl)c1` here?
**A.** inactive: -14.9%

**Q.** Which Potency does the source give for `O=C(N[C@@H]1CN(c2ncccn2)C[C@H]1CO)c1cccc(Cl)c1` here?
**A.** inconclusive: 31.6 µM [inhibitor, partial curve, poor fit]

**Q.** How did the Potency turn out when `N#Cc1c(N)sc2c1-c1ccccc1CC2` was run?
**A.** inconclusive: 14.1 µM [inhibitor, partial curve, poor fit]

**Q.** How did the “activity change, negative = inhibition” value turn out when `COc1ccc(OC)c2sc(N(Cc3cccnc3)C(=O)c3ccco3)nc12` was run?
**A.** inactive: -5.79%

**Q.** `CCc1ccccc1NC(=O)Nc1nnc(N(CC)c2ccccc2)s1` was tested. Which “activity change, negative = inhibition” value did it give?
**A.** inactive: -4.58%
